This note sets out measurements from the supplement of paper PMC11880418.

Counter-ions that a name gives are not always drawn. The list shows a part of the results. The data scatter; read single values as rough.
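Note: High-content imaging of ALDEFLUOR-stained cells with Hoechst-labelled nuclei in 384-well plates, triplicate wells, scored as Z-score against 0.1% DMSO vehicle, negative meaning fewer ALDHbr cells.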

This test has as its system MKN45. Briefly: ALDHbr (CSC) cell proportion score relative to DMSO vehicle (ratio to DMSO); breast (SUM159) / gastric (MKN45) / pancreatic (PANC1) / colon cancer lines; ALDHbr cells have high ALDH activity and are rich in cancer stem cells (CSC); higher = more CSC (ALDHbr) cells remaining. The following applies: 10 µM; 72 h.
In the case of `CN1C(=O)CC(c2ccccc2)C1=O` (stereo not given) [Phensuximide], the ALDHbr came to 1.12.
Consider `CCOC(=O)[N-]c1c[n+](N2CCOCC2)no1` [Molsidomine], for which the ALDHbr came out at 1.04.
On to `CCN[C@H]1CN(CCCOC)S(=O)(=O)c2sc(S(N)(=O)=O)cc21` [Brinzolamide], for which the ALDHbr was found to be 1.12.
On to `CCCCCCNC(=O)n1cc(F)c(=O)[nH]c1=O` [Carmofur], for which the ALDHbr was found to be 0.215.
As to `CCOC(=O)O[C@]1(C(=O)COC(=O)CC)CC[C@H]2[C@@H]3CCC4=CC(=O)C=C[C@]4(C)[C@H]3[C@@H](O)C[C@@]21C` [Prednicarbate], the ALDHbr was determined as 1.11.
Turning to `Cc1cccn2c(=O)c(-c3nnn[nH]3)cnc12` [Pemirolast potassium], the ALDHbr amounted to 1.
In the case of `CCn1cc(C(=O)O)c(=O)c2cc(F)c(N3CCN(C)CC3)cc21` [Pefloxacine], the ALDHbr is 0.995.
For the compound `C[C@H](CCC(=O)O)[C@H]1CC[C@H]2[C@@H]3[C@H](O)C[C@@H]4C[C@H](O)CC[C@]4(C)[C@H]3CC[C@]12C` [Chenodiol], the ALDHbr is 1.08.
Consider `CCOC(=O)C(C)(C)Oc1ccc(Cl)cc1` [Clofibrate], for which the ALDHbr is 1.17.
As for `CC(CN1c2ccccc2Sc2ccccc21)N(C)C` (stereo not given) [Promethazine hydrochloride], the figure is 1.05; as for `CCOC(=O)[C@H](CCc1ccccc1)N[C@@H](C)C(=O)N1CCC[C@H]1C(=O)O` [Enalapril maleate], 1.23.
In the case of `Cc1ncc([N+](=O)[O-])n1CC(C)O` (stereo not given) [Secnidazole] it was 1.11.
In the case of `CCCCC(=O)N(Cc1ccc(-c2ccccc2-c2nnn[nH]2)cc1)[C@H](C(=O)O)C(C)C` [Valsartan] it was 1.36.
With `CC(=O)Nc1ccc(OCC(O)CNC(C)C)cc1` (stereo not given) [Practolol], the ALDHbr worked out at 0.996.
On to `CSc1ccc2c(c1)N(CCC1CCCCN1C)c1ccccc1S2` (stereo not given) [Thioridazine hydrochloride], for which the ALDHbr stood at 1.26.
`Cn1c(=O)c2nc[nH]c2n(C)c1=O` [Theophylline monohydrate]: the ALDHbr is 0.879.
For the compound `Nc1nc(O)c2ncn(CCC(CO)CO)c2n1` [Penciclovir], the ALDHbr was 1.14.
With `Nc1ccc(O)c(C(=O)O)c1` [Mesalamine], the ALDHbr worked out at 1.24.
As to `Cc1scc2c1N(C(=O)CN1CCN(C)CC1)c1ccccc1NC2=O` [Telenzepine dihydrochloride], the ALDHbr stood at 0.971.
For `Clc1ccc(Cn2c(CN3CCCC3)nc3ccccc32)cc1` [Clemizole hydrochloride], the ALDHbr is 0.569.
Regarding `O=C(O)c1cc(-c2ccc(F)cc2F)ccc1O` [Diflunisal], the ALDHbr was 0.856.
As for `COc1c(N2C[C@@H]3CCCN[C@@H]3C2)c(F)cc2c(=O)c(C(=O)O)cn(C3CC3)c12` [Moxifloxacin], the figure is 1.47; as for `Clc1ccc(COC(Cn2ccnc2)c2ccc(Cl)cc2Cl)cc1` (stereo not given) [Econazole nitrate], 1.04.
As to `c1cnc(N2CCN(Cc3ccc4c(c3)OCO4)CC2)nc1` [Piribedil hydrochloride], the ALDHbr is 1.2.
Take `CC(=O)O[C@]1(C(C)=O)CC[C@H]2[C@@H]3C=C(Cl)C4=CC(=O)CC[C@]4(C)[C@H]3CC[C@@]21C` [Chlormadinone acetate]: the ALDHbr stood at 0.799.
As for `Cc1cc(C(=O)NNCc2ccccc2)no1` [Isocarboxazid], the ALDHbr stood at 1.04.
Consider `COc1ccc(CC(C)NCC(O)c2ccc(O)c(NC=O)c2)cc1` (stereo not given) [Formoterol fumarate], for which the ALDHbr was determined as 1.61.
On to `CN1CCN(CCCN2c3ccccc3Sc3ccc(S(=O)(=O)N(C)C)cc32)CC1` [Thioproperazine dimesylate], for which the ALDHbr worked out at 0.616.
With `CC(C)(C)C(=O)OCOC(=O)[C@@H]1N2C(=O)[C@@H](/N=C/N3CCCCCC3)[C@H]2SC1(C)C` [Pivmecillinam hydrochloride], the ALDHbr was found to be 1.14.
Regarding `Cc1onc(-c2ccccc2)c1-c1ccc(S(N)(=O)=O)cc1` [Valdecoxib], the ALDHbr was 0.79.
As to `COc1c(O[C@@H]2O[C@H](CO)[C@@H](O)[C@H](O)[C@H]2O)cc2c(c1OC)-c1ccc(SC)c(=O)cc1[C@@H](NC(C)=O)CC2` [Thiocolchicoside], the ALDHbr worked out at 1.53.
For `COc1ccccc1OCC(O)CO` (stereo not given) [Guaifenesin], the ALDHbr turned out to be 0.964.
`Cc1cc(O)c(C(=O)N[C@@H](C(=O)N[C@@H]2C(=O)N3C(C(=O)O)=C(CSc4nnnn4C)CS[C@H]23)c2ccc(O)cc2)cn1` [Cefpiramide]: the ALDHbr is 1.24.
Regarding `CC1(C)OC(=O)NC1=O` [Dimethadione], the ALDHbr is 1.08.
Take `CCOC1O[C@H]([C@@H](COCc2ccccc2)OCc2ccccc2)[C@H](OCc2ccccc2)[C@H]1O` (stereo not given in full) [Tribenoside]: the ALDHbr was found to be 0.451.
For `CS(=O)(=O)c1ccc([C@@H](O)[C@@H](CO)NC(=O)C(Cl)Cl)cc1` [Thiamphenicol], the ALDHbr was 0.553.
With `COc1cc(C(=O)NS(=O)(=O)c2ccccc2C)ccc1Cc1cn(C)c2ccc(NC(=O)OC3CCCC3)cc12` [Zafirlukast], the ALDHbr turned out to be 1.17.
Take `C[C@H]1[C@H](NC(=O)/C(=N\OC(C)(C)C(=O)O)c2csc(N)n2)C(=O)N1S(=O)(=O)O` [Aztreonam]: the ALDHbr turned out to be 1.12.
On to `COC(=O)C1=C(C)NC(C)=C(C(=O)OC)C1c1ccccc1[N+](=O)[O-]` [Nifedipine], for which the ALDHbr worked out at 0.855.
With `CC(=O)Nc1ccc(O)cc1` [Acetaminophen], the ALDHbr stood at 0.932.
